# Laboratory results as given in the supplement of paper PMC8728848.
# Some of the results follow.
# B1: Codakine (Codakia orbicularis), Q3KVL7_9BIVA (protein)
# chain: MKILVAVFLVLVVVGTAAAGCPDGWTQFLDLCYIYQSAKASWASAQSSCQALGGILAEPDTACENEVLIHMCRENGDAGSFGPWLGGQKVGGAWQWSSSGAAFDYLRWGPNEPNNSGGNEDCLHYNWLSWNDLRCHYQASYLCQRAAE
# How the values were obtained:
# Assay in all cases: glycan array binding signal (z-score within array); higher = stronger binding
# Conditions in all cases: glycan notation: IUPAC condensed, linker removed
# Fuc(a1-2)Gal = biological target: Fuc(a1-2)Gal
# In short: (§1)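 Glycan array data came from 3228 arrays in the Consortium for Functional Glycomics database, and only arrays with an available protein sequence were kept. Glycan names were put into IUPAC-condensed notation, and columns mapping to the same glycan were averaged. The binding signal is a within-array Z-score, averaged across arrays of one protein sequence run at different concentrations or buffers and across linkers. A negative Z-score can be read as non-binding.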
# Fuc(a1-2)Gal(b1-3)GalNAc = biological target: Fuc(a1-2)Gal(b1-3)GalNAc
# In short: as §1
# [1] = biological target: Fuc(a1-2)Gal(b1-3)GalNAc(b1-3)Gal
# In short: as §1
# [2] = biological target: Fuc(a1-2)Gal(b1-3)GalNAc(b1-3)Gal(a1-4)Gal(b1-4)Glc
# In short: as §1
# [3] = biological target: Fuc(a1-2)Gal(b1-3)GalNAc(b1-4)[Neu5Ac(a2-3)]Gal(b1-4)Glc
# In short: as §1
# Fuc(a1-2)Gal(b1-3)GlcNAc = biological target: Fuc(a1-2)Gal(b1-3)GlcNAc
# In short: as §1
# [4] = biological target: Fuc(a1-2)Gal(b1-3)GlcNAc(b1-3)Gal(b1-4)Glc
# In short: as §1
# [5] = biological target: Fuc(a1-2)Gal(b1-3)[Fuc(a1-4)]GlcNAc
# In short: as §1
# Fuc(a1-2)Gal(b1-4)Glc = biological target: Fuc(a1-2)Gal(b1-4)Glc
# In short: as §1
# Fuc(a1-2)Gal(b1-4)Glc6S = biological target: Fuc(a1-2)Gal(b1-4)Glc6S
# In short: as §1
# Fuc(a1-2)Gal(b1-4)GlcNAc = biological target: Fuc(a1-2)Gal(b1-4)GlcNAc
# In short: as §1
# [6] = biological target: Fuc(a1-2)Gal(b1-4)GlcNAc(b1-3)Gal(b1-4)GlcNAc
# In short: as §1
# [7] = biological target: Fuc(a1-2)Gal(b1-4)GlcNAc(b1-3)Gal(b1-4)GlcNAc(b1-3)Gal(b1-4)GlcNAc
# In short: as §1
# [8] = biological target: Fuc(a1-2)Gal(b1-4)GlcNAc6S
# In short: as §1
# [9] = biological target: Fuc(a1-2)Gal(b1-4)[Fuc(a1-3)]GlcNAc
# In short: as §1
# [10] = biological target: Fuc(a1-2)Gal(b1-4)[Fuc(a1-3)]GlcNAc(b1-3)Gal(b1-4)[Fuc(a1-3)]GlcNAc
# In short: as §1
# [11] = biological target: Fuc(a1-2)Gal(b1-4)[Fuc(a1-3)]GlcNAc(b1-3)Gal(b1-4)[Fuc(a1-3)]GlcNAc(b1-3)Gal(b1-4)[Fuc(a1-3)]GlcNAc
# In short: as §1
# Fuc(a1-2)Gal6S(b1-4)Glc = biological target: Fuc(a1-2)Gal6S(b1-4)Glc
# In short: as §1
# [12] = biological target: Fuc(a1-2)Gal6S(b1-4)Glc6S
# In short: as §1
# [13] = biological target: Fuc(a1-2)Gal6S(b1-4)GlcNAc
# In short: as §1
# Fuc(a1-2)[Gal(a1-3)]Gal = biological target: Fuc(a1-2)[Gal(a1-3)]Gal
# In short: as §1
# [14] = biological target: Fuc(a1-2)[Gal(a1-3)]Gal(b1-3)GlcNAc
# In short: as §1
# [15] = biological target: Fuc(a1-2)[Gal(a1-3)]Gal(b1-4)Glc
# In short: as §1
# [16] = biological target: Fuc(a1-2)[Gal(a1-3)]Gal(b1-4)GlcNAc
# In short: as §1
# [17] = biological target: Fuc(a1-2)[Gal(a1-3)]Gal(b1-4)[Fuc(a1-3)]GlcNAc
# In short: as §1
# [18] = biological target: Fuc(a1-2)[Gal(a1-4)]Gal(b1-4)GlcNAc
# In short: as §1
# [19] = biological target: Fuc(a1-2)[GalNAc(a1-3)]Gal
# In short: as §1
# [20] = biological target: Fuc(a1-2)[GalNAc(a1-3)]Gal(b1-3)GlcNAc
# In short: as §1
# [21] = biological target: Fuc(a1-2)[GalNAc(a1-3)]Gal(b1-4)Glc
# In short: as §1
# [22] = biological target: Fuc(a1-2)[GalNAc(a1-3)]Gal(b1-4)GlcNAc
# In short: as §1
# [23] = biological target: Fuc(a1-2)[GalNAc(a1-3)]Gal(b1-4)[Fuc(a1-3)]GlcNAc
# In short: as §1
# [24] = biological target: Fuc(a1-2)[GalNAc(a1-4)]Gal(b1-4)GlcNAc
# In short: as §1
# [25] = biological target: Fuc(a1-2)[GalNAc(b1-3)]Gal
# In short: as §1
# Fuc(a1-3)GlcNAc = biological target: Fuc(a1-3)GlcNAc
# In short: as §1
# [26] = biological target: Fuc(a1-3)[Gal(b1-4)]Glc6S
# In short: as §1
# [27] = biological target: Fuc(a1-3)[Gal(b1-4)]GlcNAc
# In short: as §1
# [28] = biological target: Fuc(a1-3)[Gal(b1-4)]GlcNAc(b1-2)Man(a1-3)[Fuc(a1-3)[Gal(b1-4)]GlcNAc(b1-2)Man(a1-6)]Man(b1-4)GlcNAc(b1-4)GlcNAc
# In short: as §1
binder,measurement,setting,value
B1,glycan array binding signal (z-score),Fuc(a1-2)Gal,-0.329
same,glycan array binding signal (z-score),Fuc(a1-2)Gal(b1-3)GalNAc,-0.267
same,glycan array binding signal (z-score),[1],-0.266
same,glycan array binding signal (z-score),[2],-0.217
same,glycan array binding signal (z-score),[3],-0.317
same,glycan array binding signal (z-score),Fuc(a1-2)Gal(b1-3)GlcNAc,-0.3
same,glycan array binding signal (z-score),[4],-0.31
same,glycan array binding signal (z-score),[5],-0.314
same,glycan array binding signal (z-score),Fuc(a1-2)Gal(b1-4)Glc,-0.26
same,glycan array binding signal (z-score),Fuc(a1-2)Gal(b1-4)Glc6S,-0.218
same,glycan array binding signal (z-score),Fuc(a1-2)Gal(b1-4)GlcNAc,-0.224
same,glycan array binding signal (z-score),[6],-0.213
same,glycan array binding signal (z-score),[7],-0.235
same,glycan array binding signal (z-score),[8],-0.046
same,glycan array binding signal (z-score),[9],-0.3
same,glycan array binding signal (z-score),[10],-0.141
same,glycan array binding signal (z-score),[11],-0.061
same,glycan array binding signal (z-score),Fuc(a1-2)Gal6S(b1-4)Glc,-0.328
same,glycan array binding signal (z-score),[12],-0.044
same,glycan array binding signal (z-score),[13],-0.278
same,glycan array binding signal (z-score),Fuc(a1-2)[Gal(a1-3)]Gal,-0.293
same,glycan array binding signal (z-score),[14],-0.284
same,glycan array binding signal (z-score),[15],-0.356
same,glycan array binding signal (z-score),[16],-0.342
same,glycan array binding signal (z-score),[17],-0.229
same,glycan array binding signal (z-score),[18],-0.314
same,glycan array binding signal (z-score),[19],-0.333
same,glycan array binding signal (z-score),[20],-0.372
same,glycan array binding signal (z-score),[21],-0.323
same,glycan array binding signal (z-score),[22],-0.324
same,glycan array binding signal (z-score),[23],-0.092
same,glycan array binding signal (z-score),[24],-0.327
same,glycan array binding signal (z-score),[25],-0.351
same,glycan array binding signal (z-score),Fuc(a1-3)GlcNAc,-0.384
same,glycan array binding signal (z-score),[26],-0.242
same,glycan array binding signal (z-score),[27],-0.333
same,glycan array binding signal (z-score),[28],1.67
